Read counts are not given, so values of variants with three or more changes are uncertain.
B1: OR4K15 (parent)
chain: GUUAACGGUCAUAGGCCAUGGAAACUAGGAGCACCAUUUCGCUGCCAGUGAAGAAAUGAACAAAGAAAAUCUGGGCCAGGCAGGCAUCAAAAGAAAUAGUCUUGCGCUCAACCAGAAAGUCUGUAAUCAUUUUAAGGGUA

Variants of: B1
Test: self-cleavage, relative activity (ratio to wild type); higher = more cleavage; in vitro, sequencing; the parent is a self-cleaving ribozyme

Variant | self-cleavage
A54C A62G A89G | 0.3
A54G A89G U120C | 0.31
A54G A116C G136C | 0.09
A54G A86G U97C | 0.81
A52G U57C U131C | 0.11
A55G A56G U100A | 0.84
A52G A78G A117G | 0.25
A55G A117U U122C | 1.11
A54G A110G A111G A116G | 0.04
A55G A89U A94U U132C | 1.8
A54G A68G U100C | 1.42
A55G U57C A94G A135G | 1.33
A54G A55G A91G A95G | 0.88
A52G A82U A135G | 0.22
A55G A63G A111G | 0.02
A52G A89G A134G | 0.62
A54G A66G A82G A129G | 0.37
A55G A67G U103A | 0.95
A56G A62C A78G A82U | 0.1
A55G U72C A91G | 0.16
A56G A64G U103A A117G A129G | 0.26
A54G A96G U100C A111U A140U | 0.26
G53A A94G C113U | 0.22
A52U A63G U72A U100G | 0.19

Variant | self-cleavage
A54G A56G A91G U100C A134G | 0
A56G A62G A69G | 0.58
A55U A67G U132A A134G | 0.64
A54G A59U U72A | 0.28
A54U A67C A110C A117G | 0.42
A52G A64G A140U | 1.18
A55G C71U U130C | 0.15
A54G A68G A90G | 1.24
A55G A60G A86G U130C | 0.72
A52G U57C C101U | 0.06
A54G A62U A66U | 2.17
A54C A67G G84A A94U A129C | 2.24
A52G C101A A116G A125G | 0
A52G A60G A90U | 1.62
A52G A60U A89G | 1.46
A52G A66G A82U A117G U124C | 0.12
A52G U57A A64G C107U | 0.03
A56G A60G A89G | 1.61
A54G U57C A92G A114G A118G U124C | 0.02
A55U U87C U122A | 0.64
G53A A67G A94G | 1.39
A54U A91G U100C | 2.53
A54G A78G U100C U103C A129G | 0.17
A54G A89G U103A | 0.16

Variant | self-cleavage
A54G A55U A63G | 0.67
A52G A68G A89G A90G A92G U100C | 1.54
A55U U57C G119U | 1.44
A52G A59C U72C | 0.15
A56G A59G A69G U72A A117G | 0.48
A54G A63G A86G | 1.95
A54G A60G U120C C128U U139A | 0.4
A56G A59G A86G U100A U102C | 2.13
A52U G65A A68G A78U U100C | 0.61
A56G A64U A91G | 0.61
A56G A60G A95G | 1.84
A55G A60G A66G | 0.76
G53U A59U U72C A94G | 0.24
A54G A62G A90G | 0.51
A54G A56G U130C | 2.03
A54G A60G G136A | 0.95
A55G A114G U122C | 0.41
A52U C105U G119C | 0.17
A52G A67G A86U U131C | 1.38
A55G A56G A68G A111G A135U | 0.02
A54G A82U A96G A118G | 0.19
A55G A78U A110U | 0.08
A54G A59G A68G U103C | 0.3
A54G U102C A118G | 0.25

Variant | self-cleavage
A54G A66G U97C G99A A126G | 0.38
A55G U87C A91G | 1.5
A54G A89G A94G A118G U122A | 0.19
A52U A54G A125C | 0.56
A52G U97C A111G | 0.03
A54G A56G U103C | 0.86
A52U A62U U100C U130C | 2.34
A54G G75A A92U U100C | 0.02
A54G A90G U139C | 1.18
A54G A62G A98C U102C U108C | 0.01
A52G U70A U139C | 1.16
A52U A62G G80C U100C A117U | 0
A54G C76G A78C A126U | 0.06
A54G A56G G106C | 0.01
A54G A64G A67G | 1.09
A54G A56G A68G | 1.21
A52G A68G A69G | 0.99
A52G A68G A116C A118G | 0.09
A55G A62U U70C A114G | 0.03
A55G U72C U127C U131C | 0.07
A52G A82G A118G | 0.21
A55G A59G A116U U127C U139C | 0.25
A52G U87C A126G U127C | 1.42
A52U A59G A68G U87C U100G | 1.76

Variant | self-cleavage
A52G A86G U120C A140G | 1.33
A52G A82U U102A U131C U132C | 0.27
A54G A55G A118G U132C | 1.24
A52G A110U A118G | 1.5
A52G A62G A68G | 0.65
A54G U72C A78U U87C A116U | 0.02
A52G A82G G99A | 0.08
A54G A67G U124G | 1.47
A52G A91G A111G A114G U120C | 0
A54G A56G A67G U100C | 1.47
A54G A59G A114U | 0.13
A52G G58U U108A A126G A140G | 0.01
A52G A62U G79A | 0.18
A54G A60U A69G U120C | 0.67
A55G G75A A90G | 0.04
A55U U103C A111G | 0.01
A55G A95G U122C | 1.3
A55G A68G U87C A89G A118G | 0.29
A55G U103C U131C | 0.78
A54G A89U U132C | 1.46
A52G A62G A63G U127C | 0.82
A55G A90G U122C | 0.21
A52G U70C A90G A118G | 0.25
A54G A68U U70A U87C U102C | 1.16

Variant | self-cleavage
A55G A60G A66G A68U | 1.6
A56G A64G A69G | 1.62
A56G A60U A67G A89U | 2.33
A55G A56G A114G U122C | 0.09
A54U U70C C76G A90G | 0.1
A54C A78G A82C | 0.24
A52G U103C A114U | 0.03
A54C A66G A91G A95G A134G | 2.23
G53A G58A A118U A135G | 0.41
A52G C107U A135G | 0.06
A54G A62G U130C | 1.31
A55G A90G A126G U131C U139G | 1.29
A52G U72C U120C | 0.12
A54G A82G A118C U139G | 0.35
A54U U70C A129G A140G | 0.43
A52G A67G U132C | 1.78
A55G C101A U122C A140G | 0.06
A54G C105U U130C | 0.03
A52G A95G A117G | 2.29
A56G A64G A94G U122C U124C U131C | 0.39
A54G G58U A66U | 0.92
G53A A55G A56U A59G A110G A116G | 0.03
A52G A82U A110G U131C | 0.02
A52G A95G A116G | 1.9

Variant | self-cleavage
A52G A111G A114U | 0.04
A55G A82G A111U | 0.12
G53U U72C G106C | 0.02
A55G A56G A64G U87A U133A | 0.88
A55G A95G U108C | 0.01
A52U A90G U130C U132A | 0.48
A55G A92G C121G | 2.17
A55G A62U A82G U100A | 0.1
A55G A64G A78U A82G | 0.13
A55G U102C A116G | 0.64
A54G C101G A110G A118G | 0.02
A54G A92U A126G | 0.65
A56G A60G U139C | 1.55
A54G A63G A114G U122A | 0.34
A55G A66G A78G A116G | 0.2
A52G A86C U87C A90G U108C | 0.01
A52G A56G U103C | 1.03
A52G A96G A114U | 0.1
A55G A69U G106C A111G U132C | 0.01
A56G A59U U130C | 1.37
A54G A56G A96U | 1.46
A55G A67G A68G A98G A118G | 0.12
A55G A67U U132C | 2.1

Reference: the RNAGym collection of RNA variant scans (doi:10.7554/elife.90254)
